The values below come from PubChem BioAssay AID463173 (ICCB-Longwood Screening Facility, Harvard Medical School, 2010).

Among all 52,000 compounds or so, about 4,300 (8.3%) were called active. Cut-off read from the data, not from the text of the source: active = survival mostly below about 52% (no sharp cut-off); inactive = mostly above about 56%. Some of the results follow.

For this assay, the system named is DeltatarO mutant. As to the kind of experiment: growth inhibition of S. aureus wild type versus tarO mutant, primary screen, teichoic acid synthesis inhibitors, RN4220, OD600 (AID 463173). Conditions: OD600, 18 h, hits give low values, screened at 18.75 µg/mL (by protocol).
Regarding `COc1ccc(-n2nnnc2C2CCN(S(=O)(=O)c3ccc(C(C)(C)C)cc3)CC2)cc1`, the survival was inactive: 82%.

`CCC(CC)C(=O)Nc1nc2c(s1)CC(C)CC2` (stereo not given): the survival was inactive: 73%.

For the molecule `O=C(Nc1ccc2nc(SCC(=O)N3CCCc4ccccc43)sc2c1)c1ccccc1`, the survival is inactive: 79%.

On to `CCC(=O)Nc1cccc(NC(=O)c2cccs2)c1`, for which the survival was inactive: 72%.

Consider `CCOC(=O)c1ccc(NC(=O)Nc2cc3c(cc2N2CCCC2)n(C)c(=O)n3C)cc1`, for which the survival is inactive: 82%.

For the molecule `COc1ccc(N2CCN(C(=O)c3cccc(NC(=O)c4nsc5ccccc45)c3)CC2)cc1`, the survival was inactive: 119%.

As for `Nc1c(C(=O)Nc2ccc(F)c(F)c2)sc2nc(-c3ccncc3)ccc12`, the survival is inactive: 70%.

As for `COC(=O)c1cc(NC(=O)c2nn(C)c3c2COc2ccccc2-3)cc(C(=O)OC)c1`, the survival is inactive: 52%.

On to `COc1cccc(CNC(=O)c2cc(C)nc3c2c(C)nn3-c2cccc(F)c2)c1`, for which the survival is inactive: 126%.

Consider `Clc1c(-c2nnc(-c3ccc(N4CCOCC4)cc3)o2)sc2ccccc12`, for which the survival is inactive: 70%.

In the case of `COc1ccc(Nc2ccc3cc(S(=O)(=O)N4CCCC4)ccc3n2)cc1Cl`, the survival is inactive: 88%.

In the case of `O=C(O)/C=C/c1ccc(S(=O)(=O)N(CCO)CCO)cc1`, the survival is inactive: 96%.

For `COc1ccccc1OCC(=O)N(Cc1ccc(N(C)C)cc1)CC1CCCO1` (stereo not given), the survival was inactive: 61%.

`CCOc1ccc(-n2c(SCC(=O)Nc3ccccc3OC)nc3c(oc4ccccc43)c2=O)cc1`: the survival is inactive: 69%.

In the case of `CC(=O)c1ccc(NC(=O)C2CCN(S(=O)(=O)c3ccc4c(c3)CCCN4C(=O)C3CCC3)CC2)cc1`, the survival was inactive: 95%.

On to `Cc1ccc2oc(=O)c3cnn(CC(=O)N(C)c4ccc(F)cc4)c3c2c1`, for which the survival is inactive: 89%.

Regarding `Cc1ccc(C)c(NC(=O)N2CC=C(c3c[nH]c4ccccc34)CC2)c1`, the survival was inactive: 99%.

On to `COc1ccc(N2CCN(S(=O)(=O)c3c(C)nc4scc(C)n4c3=O)CC2)cc1`, for which the survival is inactive: 84%.

For the molecule `Cc1cc(C)c(NC(=O)CSc2nc(C)cc(C)c2C#N)c(C)c1`, the survival was inactive: 95%.

On to `Cc1cccc(N(C)C(=O)C(Cc2ccccc2)NS(=O)(=O)c2cccc3nsnc23)c1` (stereo not given), for which the survival is inactive: 74%.

In the case of `O=C(/C(=N/O)n1cncn1)c1ccc(Cl)cc1Cl`, the survival is inactive: 72%.

For `O=C(CN1Cc2ccccc2C1=O)Nc1cc(F)ccc1F`, the survival is inactive: 81%.

With `Cc1cccc(NC(=O)Cn2cc(S(=O)(=O)c3ccc(F)cc3)c(=O)c3cc4c(cc32)OCO4)c1`, the survival was inactive: 109%.

For the molecule `CCc1cc(C(=O)Nc2cnn(Cc3ccc(F)cc3)c2)no1`, the survival was inactive: 50%.

In the case of `CC(=O)c1cccc(NC(=O)c2cnn(-c3cccc(C)c3)c2-n2cccc2)c1`, the survival is inactive: 99%.

With `Cc1ccc(-c2c(C(=O)N3CCN(c4cccc(C)c4C)CC3)oc(=O)c3ccccc23)cc1`, the survival was inactive: 78%.

On to `CCC(=O)N1CCc2cc(Br)cc(S(=O)(=O)NCCc3ccccc3Cl)c21`, for which the survival was active: 39%.

For the molecule `CCCSc1nc(=O)c2c(n1C)NC(=O)CC2c1cccc(F)c1F` (stereo not given), the survival is active: 54%.

For `O=C(Cn1c(-c2cccs2)cc2cc(Cl)ccc21)NCc1ccccc1`, the survival is inactive: 88%.

Take `COc1ccc(N2CCN(C(=O)Cc3c(C(=O)O)c(C)cn3C)CC2)cc1`: the survival is inactive: 55%.

On to `CCOC(=O)c1c(NC(=O)CCCOc2ccc(C(C)(C)C)cc2)sc2c1CCC2`, for which the survival was active: 9%.

`CC(C)=CC(=O)Nc1nnc(-c2ccccc2)s1`: the survival was inactive: 81%.

Take `COc1ccc(-n2nc3ccc(NC(=O)COc4ccc(C)c(C)c4)cc3n2)cc1`: the survival was inactive: 56%.

Regarding `CCC(OC(=O)C1=Cc2ccccc2OC1)C(=O)NC1CCCC1` (stereo not given), the survival was inactive: 94%.

In the case of `CCc1ccccc1NC(=O)CN(Cc1ccccc1)S(=O)(=O)c1ccc2nc(C)sc2c1`, the survival is inactive: 102%.

Turning to `CCOc1cc(C(=O)Nc2ccc3oc(-c4ccc(CC)cc4)nc3c2)cc(OCC)c1OCC`, the survival was active: 41%.

Regarding `COc1ccccc1CCNC(=O)CCn1c(=O)c2cccn2c2ccc(F)cc21`, the survival was active: 44%.

Turning to `Cc1cc(C)cc(NC(=O)CSCn2nnc3c(=O)[nH]c(Cc4ccc(F)cc4)nc32)c1`, the survival is inactive: 50%.

For the molecule `COc1ccc(CCNC(=O)CCc2c(C)nc3cc(-c4ccccc4)nn3c2C)cc1OC`, the survival is inactive: 62%.

As for `CC(C)(C)NC(=O)C1CC(=O)OC1(C)C` (stereo not given), the survival is inactive: 102%.

Turning to `COc1ccc(OC)c(CCNC(=O)c2cc3c(-c4ccccc4F)nn(C)c3s2)c1`, the survival was inactive: 54%.

With `CCOC(=O)c1cccc(NC(=O)CC2C(=O)N(c3ccc(F)cc3)C(=O)N2C(C)C)c1` (stereo not given), the survival is inactive: 89%.

Consider `Cc1ccc(-c2nc3ncccc3o2)cc1NC(=O)COc1ccc(C(C)C)cc1`, for which the survival is active: 6%.

With `Cc1cc(C)c2nc(-c3ccco3)cc(C(=O)O)c2c1`, the survival was inactive: 110%.

In the case of `Cc1ccc(C)n1CCC(=O)O`, the survival was inactive: 116%.

Consider `COCCCNC(=O)CC(c1cc(OC)c(OC)c(OC)c1)N1Cc2ccccc2C1=O` (stereo not given), for which the survival was inactive: 87%.

With `COc1ccc(NC(=O)C(Cc2ccccc2)NS(=O)(=O)c2ccc(Br)s2)cc1OC` (stereo not given), the survival was inactive: 55%.

Turning to `Cc1noc(/C=C/c2ccco2)c1S(=O)(=O)N1CCC(C(=O)Nc2ccc(F)cc2F)CC1`, the survival is inactive: 64%.

Take `Cc1ccc(OCC(=O)Nc2ccc3nc(SCc4ccccc4)sc3c2)cc1`: the survival was inactive: 81%.

As for `Cc1cccc(OCc2ccc(-c3nc(C#N)c(N4CCC(C(N)=O)CC4)o3)o2)c1`, the survival was inactive: 80%.

As to `CCc1cc2c(cc3c(=O)n(CCCC(=O)NCc4ccccc4Cl)nc(CC)n32)s1`, the survival was inactive: 65%.

With `CCOC(=O)c1cccc(NC(=O)Cn2c(=O)nc(-c3ccccc3)c3ccccc32)c1`, the survival is inactive: 71%.

With `Cc1cccc(C(=O)Nc2ccc(-c3nc4ccccc4s3)c(C)c2)c1`, the survival is inactive: 71%.

In the case of `CCCCn1nnnc1SCC(=O)NCc1ccccc1`, the survival was inactive: 98%.

Turning to `Cc1ccc(CNC(=O)C(C(C)C)N2Cc3ccccc3C2=O)cc1` (stereo not given), the survival was inactive: 73%.

`CCN(c1ccc(OC)cc1)S(=O)(=O)c1c(C(=O)N2CCCCCC2)c(C)n(C)c1C`: the survival was inactive: 80%.

`COc1ccc(N2CCN(CC(O)COc3ccccc3C(C)(C)C)CC2)cc1` (stereo not given): the survival was active: -8%.

For `O=C(NC1CCCCC1)c1ccc(Cn2c(SCc3cccc(F)c3)nc3cccnc32)cc1`, the survival is inactive: 81%.

As to `CN(C(=O)CSc1cn(CC(=O)N2CCCCCC2)c2ccccc12)c1ccccc1`, the survival was inactive: 72%.

In the case of `CCCCNc1sc(S(=O)(=O)CC)nc1S(=O)(=O)c1ccc(C)cc1`, the survival was inactive: 74%.

As for `COc1nc(Nc2ccc(C)cc2)nc(NC2CCCC2)n1`, the survival was inactive: 81%.

For the molecule `CNS(=O)(=O)c1cn(CC(=O)Nc2ccc(F)cc2F)cc1S(=O)(=O)NC`, the survival was active: 0%.

With `Cc1ccc(N2CC(c3nnc(Cc4ccc(Cl)cc4)o3)CC2=O)cc1` (stereo not given), the survival is inactive: 48%.

For `CCc1ccccc1NC(=O)CSc1nnc(-c2cc(OC)c(OC)c(OC)c2)o1`, the survival was inactive: 111%.

Take `CC(=O)Nc1cc(C(=O)NCc2ccccc2)ccc1Sc1ccc(C)cc1`: the survival was inactive: 99%.

For `Cc1cccc(N2CCN(C(=O)Cn3c(=O)c4cccn4c4ccc(F)cc43)CC2C)c1` (stereo not given), the survival was inactive: 82%.

For `Cn1c(=O)c2sccc2n2c(CCCC(=O)Nc3ccc(F)cc3F)nnc12`, the survival is inactive: 132%.

In the case of `CCn1c(CN2CCN(c3cccc(Cl)c3)CC2)nc2c1c(=O)[nH]c(=O)n2C`, the survival was inactive: 70%.

As for `Cc1cc2nn(-c3ccc(Cl)cc3)nc2cc1NC(=O)C(C)C`, the survival was inactive: 125%.

As to `COCCCNc1ncnc2c1c(-c1ccccc1)cn2-c1ccc(C)c(Cl)c1`, the survival was inactive: 67%.

With `COc1ccc2c(c1)c1c(c(=O)n(-c3ccccc3C)c(=O)n1Cc1ccccc1C)n2C`, the survival is inactive: 83%.

`COc1ccc(OC)c(NC(=O)CN2C(=O)CC(c3ccco3)Sc3ccccc32)c1` (stereo not given): the survival was inactive: 53%.

Turning to `O=C(COc1ccc(Cl)cc1)Nc1cc(-c2ccccc2)no1`, the survival is inactive: 76%.

On to `CCOCCCNC(=O)c1cnc2sc(N3CCCCCC3)nn2c1=O`, for which the survival is inactive: 83%.

Take `CCOc1ccc(NC(=O)Cn2c(=O)n(CCc3ccccc3)c(=O)c3c4c(sc32)CN(C(C)=O)CC4)cc1`: the survival was inactive: 108%.

On to `O=C(CCc1nc(-c2ccccc2F)no1)Nc1cccc(C(F)(F)F)c1`, for which the survival was inactive: 81%.

On to `Cc1ccc(C)c(N2CCN(C(=O)c3cccc(-n4c(C)nc5cccnc54)c3)CC2)c1`, for which the survival is inactive: 78%.

Consider `Cc1ccc(CC(=O)N(Cc2nc(-c3ccc(C)cc3)no2)C(C)C)cc1`, for which the survival was active: -4%.

On to `Cc1nn(-c2ccccc2)c(OC(=O)c2ccc(Br)cc2)c1S(=O)(=O)c1ccccc1`, for which the survival is inactive: 115%.

`CCOc1ccc(OCC)c(NC(=O)c2cc(C)nc3c2c(C)nn3-c2cccc(Cl)c2C)c1`: the survival is inactive: 94%.

In the case of `CC(=O)c1cccc(-n2c(=O)c3c4c(sc3n(Cc3ccccc3Cl)c2=O)CN(C(C)=O)CC4)c1`, the survival was inactive: 83%.

For the molecule `Cc1ccc(C2CCN(C(=O)c3cnn(-c4ccccc4Cl)c3C3CCN(C(=O)OC(C)(C)C)CC3)C2)cc1` (stereo not given), the survival is inactive: 67%.

For the molecule `COc1cc(OC)c(C2C=C(C(=O)O)Nc3ncnn32)cc1OC` (stereo not given), the survival was inactive: 99%.

`COc1ccc(CNC(=O)c2cc3ccccn3n2)c(OC)c1`: the survival was inactive: 71%.

Turning to `C=CCN(CC=C)C(=S)Nc1ccc2nc(C)c(C)nc2c1`, the survival was inactive: 79%.

`CCc1cccc2c(=O)c(C(=O)N3CCCC3)c[nH]c12`: the survival was inactive: 59%.

Consider `CCOC(=O)c1ccc2c(c1)[nH]c(=S)n2CC`, for which the survival is inactive: 87%.

Turning to `Cn1nc(C(=O)N2CCN(c3ccccc3)CC2)c2c1-c1ccccc1SC2`, the survival was inactive: 80%.

`CCCCOc1ccc(CNC(=O)Cn2ncn3c(cc4cc(F)ccc43)c2=O)cc1`: the survival was inactive: 81%.

As to `CCCCN(CC)C(=O)Cn1c(=O)n(-c2ccc(OCC)cc2)c(=O)c2c3c(sc21)CCC3`, the survival was inactive: 78%.
